Reference: the supplement of paper PMC7826260
Some of the results follow. Each Rep nickase domain was tested in vitro on the same pool of single strands at 3 µM enzyme and 37 °C for 1 h; the strands have 90 letters, of which the middle is given. Uncut reads are compared with the no-enzyme pool on a log2 scale; the lower, the more was cut; hits are not called. Because reads are shares of a total, they shift together; values above 0 arise when much of the pool is cut.

Tests used:
Experiment in all cases: uncleaved DNA left, log2 of reads against the no-enzyme library (log2 ratio); higher = less cleavage (more negative = more Rep cleavage of the k-mer); sequences stand for … in CTCGTCCG…ACCGGAGA
[1] = tested on: T1, Rep nickase domain of Muscovy duck circovirus
T1 sequence (residues 1-111, tag not shown): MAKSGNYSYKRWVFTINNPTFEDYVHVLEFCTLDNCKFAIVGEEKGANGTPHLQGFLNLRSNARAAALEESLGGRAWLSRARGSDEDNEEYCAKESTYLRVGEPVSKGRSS
Description: (§1)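 A pool of 90-nt single-stranded DNAs with seven random bases just before the constant AC of the nick site (name = the seven bases) was cut by 3 µM recombinant His6-SUMO-tagged Rep nickase domain (300 nM DNA, 50 mM HEPES pH 8.0, 50 mM NaCl, 1 mM MnCl2, 1 h, 37 °C, three replicates). Uncut DNA was amplified and sequenced.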

[2] = tested on: T2, Rep nickase domain of banana bunchy top virus
T2 sequence (residues 1-94, tag not shown): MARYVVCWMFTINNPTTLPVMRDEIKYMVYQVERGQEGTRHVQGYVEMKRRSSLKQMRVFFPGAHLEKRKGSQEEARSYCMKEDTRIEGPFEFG
Description: as §1

[3] = tested on: T3, Rep nickase domain of cabbage leaf curl virus
T3 sequence (residues 1-116, tag not shown): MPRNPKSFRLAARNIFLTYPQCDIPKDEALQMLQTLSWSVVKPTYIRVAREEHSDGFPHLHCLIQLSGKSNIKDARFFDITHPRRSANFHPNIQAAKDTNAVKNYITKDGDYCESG
Description: as §1

[4] = tested on: T4, Rep nickase domain of chickpea chlorotic dwarf virus
T4 sequence (residues 1-124, tag not shown): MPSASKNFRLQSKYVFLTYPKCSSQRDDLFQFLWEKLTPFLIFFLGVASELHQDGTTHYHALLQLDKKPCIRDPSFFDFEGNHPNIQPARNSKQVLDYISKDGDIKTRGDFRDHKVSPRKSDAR
Description: as §1

[5] = tested on: T5, Rep nickase domain of faba bean necrotic yellows virus
T5 sequence (residues 1-98, tag not shown): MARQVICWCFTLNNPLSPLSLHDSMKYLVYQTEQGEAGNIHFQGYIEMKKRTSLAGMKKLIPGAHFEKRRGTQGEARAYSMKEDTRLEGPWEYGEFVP
Description: as §1

[6] = tested on: T6, Rep nickase domain of maize striate mosaic virus
T6 sequence (residues 1-117, tag not shown): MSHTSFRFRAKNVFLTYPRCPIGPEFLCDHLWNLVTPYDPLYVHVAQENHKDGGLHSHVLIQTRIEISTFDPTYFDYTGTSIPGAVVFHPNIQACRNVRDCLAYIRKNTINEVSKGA
Description: as §1

[7] = tested on: T7, Rep nickase domain of porcine circovirus 2
T7 sequence (residues 2-116, tag not shown): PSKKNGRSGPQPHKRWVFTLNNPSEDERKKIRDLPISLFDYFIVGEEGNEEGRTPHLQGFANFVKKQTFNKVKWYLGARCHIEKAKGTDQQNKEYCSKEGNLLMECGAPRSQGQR
Description: as §1

[8] = tested on: T8, Rep nickase domain of tomato golden mosaic virus
T8 sequence (residues 1-124, tag not shown): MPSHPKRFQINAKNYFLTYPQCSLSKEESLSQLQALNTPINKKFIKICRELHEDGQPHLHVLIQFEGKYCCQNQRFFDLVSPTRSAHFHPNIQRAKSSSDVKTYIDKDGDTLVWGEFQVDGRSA
Description: as §1

[9] = tested on: T9, Rep nickase domain of tomato yellow leaf curl virus
T9 sequence (residues 1-136, tag not shown): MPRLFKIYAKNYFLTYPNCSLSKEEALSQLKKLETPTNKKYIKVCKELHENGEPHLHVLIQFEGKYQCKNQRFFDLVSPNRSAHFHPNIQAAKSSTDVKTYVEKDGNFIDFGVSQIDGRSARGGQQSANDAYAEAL
Description: as §1

[10] = tested on: T10, Rep nickase domain of wheat dwarf virus
T10 sequence (residues 1-137, tag not shown): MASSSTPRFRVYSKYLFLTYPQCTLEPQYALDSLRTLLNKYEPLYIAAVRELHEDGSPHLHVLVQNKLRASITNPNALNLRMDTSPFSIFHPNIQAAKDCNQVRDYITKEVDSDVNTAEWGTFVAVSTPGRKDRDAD
Description: as §1

Sequence	uncleaved DNA left (log2) [1]	uncleaved DNA left (log2) [2]	uncleaved DNA left (log2) [3]	uncleaved DNA left (log2) [4]	uncleaved DNA left (log2) [5]	uncleaved DNA left (log2) [6]	uncleaved DNA left (log2) [7]	uncleaved DNA left (log2) [8]	uncleaved DNA left (log2) [9]	uncleaved DNA left (log2) [10]
TACTCCA	-0.983	-0.317	-0.378	-2.39	-0.2	-0.127	-2.83	-0.245	-0.0564	-0.0781
TGAATCA	0.112	0.128	0.436	-0.0463	0.0521	0.597	0.066	0.0687	0.144	0.214
TGGTGAG	-0.00912	-0.106	-0.496	-0.136	0.0218	-0.709	0.124	-0.0787	-0.00903	-0.0727
ATTCGTG	0.112	0.0485	-0.821	-0.684	0.0155	-1.06	0.0136	-0.0354	0.00922	-0.0687
TTTCGTC	0.146	0.00468	0.047	-0.362	0.0865	-0.718	0.0686	-0.0756	0.0476	-0.0731
AAGGCAC	0.0426	0.0624	-0.0492	0.23	0.00761	0.0153	0.0563	-0.0208	0.00281	0.0147
GGGATCG	0.04	0.113	0.66	1.66	-0.0377	1.77	0.155	-0.028	-0.101	0.106
CGAGTCG	0.0145	-0.0483	-0.467	-0.381	0.0255	-0.876	0.116	-0.0888	0.0948	-0.0917
GGCCTTA	0.124	0.014	0.605	1.1	0.153	1.69	0.192	0.082	0.141	0.137
CCATACG	0.0932	-0.000763	-0.783	0.127	-0.0374	-0.78	0.0871	-0.0489	0.0441	-0.0456
CAAAACC	-0.0119	0.168	-0.0829	-1.18	0.0202	-0.691	-0.349	0.118	-0.0275	0.0899
CGGAAAC	-0.0479	0.0251	0.219	0.429	-0.0133	0.195	0.0353	-0.149	0.0484	0.116
CGTTCTT	-2.48	-0.29	-0.0679	-1.44	0.0693	0.085	-2.73	-0.185	-0.000335	-0.116
CGTGTGG	-0.0408	-0.0803	0.0838	0.448	-0.0954	0.0942	0.0294	-0.0357	-0.199	-0.163
CATCATC	-0.0123	-0.061	0.0629	-0.242	-0.0421	-0.73	0.0657	-0.0792	-0.00686	-0.143
GTGATCA	0.114	0.232	0.431	1.08	-0.00192	1.94	0.142	0.0434	0.192	0.21
CATGGGC	0.0145	-0.0678	-0.359	-0.196	-0.164	-1.02	0.0522	-0.172	-0.15	-0.0838
CATGACG	0.00774	-0.159	-0.821	-0.257	-0.00549	-1.19	0.0542	-0.138	-0.0441	-0.142
TGTAAAA	-0.0102	0.0275	0.266	0.297	-0.0213	-0.0285	0.0818	0.0531	0.0694	0.168
TCCGATC	0.0354	-0.0379	0.181	0.082	-0.0411	-0.11	0.122	-0.11	-0.0933	0.0621
GACTTTA	0.112	0.118	0.105	-0.296	0.067	0.983	-1.64	0.148	0.127	0.184
TCGAAGC	0.0209	-0.00301	-0.0604	-0.358	-0.108	-1.07	0.0675	-0.0425	-0.0651	-0.0561
GCGTCCA	-0.019	0.132	0.118	-0.0604	-0.0695	0.257	-0.174	-0.0493	-0.00973	0.0588
GATTCCA	-0.218	-0.113	0.329	-0.365	-0.0196	1.09	-0.548	0.0439	0.0163	0.0893
ACCTTTG	0.115	0.0999	-0.666	-0.301	0.291	-1.09	0.106	0.196	0.151	0.117
TGATATT	-3.84	-1.05	-2.23	-2.87	-0.363	-1.14	-4.02	-0.848	-0.068	-2.72
GAGCTTG	0.14	0.162	0.198	0.854	0.0548	1.11	0.166	0.135	0.0565	0.194
AAGCACC	0.0696	-0.0508	0.0728	-0.227	0.116	-0.247	-0.0385	-0.0124	-0.00696	0.00488
CTTGCCC	-0.105	-0.255	-0.47	-0.683	0.0815	-0.974	-0.0514	-0.199	-0.0659	-0.25
AGCAATA	0.0799	0.0452	-0.0398	-0.399	0.0483	0.381	-0.582	-0.0225	-0.0926	0.135
